Consider 34 variants from the RNAGym collection of RNA variant scans (doi:10.1093/nar/gkz1192).

The source gives no read counts; variants with many changes may rest on few reads.

B1: CPEB3 Ribozyme (parent)
chain: UAACAGGGGGCCACAGCAGAAGCGUUCACGUCGCAGCCCCUGUCAGAUUCUGGUGAAUCUGCGAAUUCUGCUGUAUAUCUC

This data set covers variants of B1. The experiment in a line: self-cleavage, relative activity (ratio to wild type); higher = more cleavage; in vitro, sequencing. The method in brief: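 Relative activity compares each variant's cleaved/total read fraction with that of the unmutated ribozyme. To get these fractions, barcoded CPEB3 ribozyme libraries from rounds of error-prone PCR were transcribed with T7 RNA polymerase for 5 hours at 37°C and then given 15 min of DNase I treatment before EDTA was added. The RNAs were reverse transcribed with template switching and sequenced on Illumina, and DNA sequencing linked barcodes to variants. A minimum of 5 reads applied, and three batches were averaged.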
Turning to UAACAGGGGGCCACAGCAGAAGGGCUAACGUCGCAGCCCCUGUCAGAUUCUGGUGACUCUGCUAAUUCUGCUGUAUAUCUC, the self-cleavage came out at 0.09.
To UAACAGGGGGCCACAGCAGAAGGGUUCACGUCGCAACCCCUGUCAGACUCUGGUGAAUCUGCGAAUUCUGCGGUAUACCCC belongs 0.2; to UAACAGGGGGCCACAGCAGAAGGGUUCACGACGCAGCCCCUGUCAGAUUCUGGUGAAUCUGCGAAUUCAGCUGUAUAUCUC, 0.04.
Next, UAACAGGGGGCCACAGCAGAAGGGUACACGUCGCAGCCCCUGUCAGGUUCUGGUGAAUCUGCGAACUCUGCUGUAUAUCUC: 0.06.
For the variant UAACAGGGGGCCACAGCAGAAGAGUUCACGUCGCAGCCCCGGUCAGUUUCUGGCGAAUCUGCGAAUUCUGCUGUAUAUCUC, the self-cleavage is 0.1.
Next, UAACAGGGGGCCACAGCAGAAGAGUUCACGUCGCAGCCCCUGUCAGAUUCAGGUGGAUCUGCGAAUUCUGCUGUAUGUCUC: 0.09; UAACAGGGGGCCACAGCAGAAGGGUUCACGUCGCAGCCCCUGUCAGGUUCUGGUGGAUCUGCGAAUUCUGCUGUAUAUCUC: 0.2.
To UAACAGGGGGCCACAGCAGAAGGGUUCACGUCGCAGACCCUGUCAGAUUCUGGUGAAUCCGCGAAUUCUGCUGUAUAUCUU belongs 0.06; to UAACAGGGGGCCACAGCAGAAGAGUUCACGUCGCAGCCCCUGUCAGAUUCAGGUGAAUCAGCGAACUCUGCUGUAUAUCUC, 0.07.
With UAACAGGGGGCCACAGCAGAAGAGUUCACGCCGCAGCCCCUGUCAGAUUCUGGUGGAUCUGCGAAUACUGCUGUAUAUCUC, the self-cleavage was found to be 0.11.
As for UAACAGGGGGCCACAGCAGAAGGGUUCACGUCGCAGCCCCUGUCAGAUUCUGGUGAAUCUGCGAAUUCUGCUGUGUUUCUC, the self-cleavage came out at 0.08.
To UAACAGGGGGCCACAGCAGAAGGGUCCACGUCGCAGCCCCUGUCAGUUUCUGGUGAGUCUGCGAAUUCUGCUGUAUAUCCC belongs 0.11; to UAACAGGGGGCCACAGCAGAAGAGUUCACGUCGCAGCCCCUGUCAGACUCCGGUGAACCUGCGAAUUCUGCUGUAUAUCUC, 0.05.
Next, UAACAGGGGGCCACAGCAGAAGGGUUCACGUCGCAGCCCCAGUCGGAUUCUGGUGAAUCUCCGAACUCUGCUGUAUAUCUC: 0.1.
To UAACAGGGGGCCACAGCAGAAGGGUCCACGUCGCAGCCCCUGUCGGAUUCUGGUGAAUCUGCGAAUUCUGCAGUAUAUCUG belongs 0.15; to UAACAGGGGGCCACAGCAGAAGAGUUCACGUCGCAGCCCCUGUCAGAUUCUGGCGAAUCUGCGAGUUCUGCUGAAUAUCUC, 0.15; to UAACAGGGGGCCACAGCAGAAGAGUUCACGUCGCAGCCCCAGUCAGAUUCUGGUGAAUCUGCGGAUUCUGCUGUAUAUCUC, 0.2.
With UAACAGGGGGCCACAGCAGAAGGGUUCACGUCGAAGCCCCUGUCAGAUUCUGGUGGACCUGCGAUUUCUGCUGUAUAUCUC, the self-cleavage amounted to 0.05.
Consider UAACAGGGGGCCACAGCAGAAGAGUUCACGCCGCAGCCCCCGUCAGAUUCAGGUGAAUCUGCGAAUUCUGCUGUGUAUCUC, for which the self-cleavage came to 0.15.
In the case of UAACAGGGGGCCACAGCAGAAGGGUUCGCGUCGCAGCCCCUGUCAGAUUCUGGUGAGUCUGCGGAUUCUGCCGUAUGUCUC, the self-cleavage turned out to be 0.18.
To UAACAGGGGGCCACAGCAGAAGAGUUCACGUCGCAGCCCCUGUCAGAUUCUGGUGAAUCUGCGAAUUCUGCCGUGUAUCUC belongs 0.18.
Next, UAACAGGGGGCCACAGCAGAAGGGUUCACGUCCCAGCCCCAGUCAGAUUCCGGUGAAUCUGCGAAUUCUGCUGUAUAUCCC: 0.11; UAACAGGGGGCCACAGCAGAAGGGUACACGUCGCGGCCCCUGUCAGAUUCUAGUGAAUCUGCGAAUUCUGCUGUAUGUCUC: 0.05; UAACAGGGGGCCACAGCAGAAGGGUCCACGUCGCAGCCCCUGUCAGAUUCUGGCGAAUCUGCGAAUUCUGCUGUAUAUCUC: 0.08.
For UAACAGGGGGCCACAGCAGAAGAGUUCACGUCGCAGCCCCAGUCAGAUUCUGGUGAAUCUGCGAAUUCCGCUGUAUAUCUC, the self-cleavage is 0.14.
To UAACAGGGGGCCACAGCAGAAGGGUUCACGUCGCGGCCCCUGUCAGAUUCUGGUGAAUCUGCGAAUUCUGCUGUAUAUCAC belongs 0.17.
To UAACAGGGGGCCACAGCAGAAGGGUUCACGCCGCAGCCCCUGCCAGAUUCUGGUGAAUCAGCGGAUUCUGCUGUAUAUCUC belongs 0.08; to UAACAGGGGGCCACAGCAGAAGAGUUCACGUCGCAGCCCCUGUCAGAUUCUGGUGAAUCUGCGAAUUCUGCUGUACGUCUC, 0.22; to UAACAGGGGGCCACAGCAGAAGGGUUCACGUCGCAGCCCCUAUCAGAUUCUGGGGAAUCUGCGAAUUCUGCUGUAUAUCUC, 0.07.
To UAACAGGGGGCCACAGCAGAAGGGUACACGACGCAGCCCCUGUCAGAUUCUGGUGAAUCUGCGUAUUCUGCUGUAUAUCUC belongs 0.08; to UAACAGGGGGCCACAGCAGAAGGGUUCACGUCGCAGCCCCUGUCAGCUUCCGGUGAAUCUGCGGAUUCAGCUGUAUAUCUC, 0.1; to UAACAGGGGGCCACAGCAGAAGGGUCCACGUUGCAGCCCCUGUCAGAUUCUGGUGAAUCUGCGAAUUCUGCUGUAUAUCUC, 0.06.
For UAACAGGGGGCCACAGCAGAAGGGUUCACGUCGCAGCCCAUGUCAGAUUCUGGUGAAUCUGCGAAUUCUGCCGUAUAUCUC, the self-cleavage turned out to be 0.09.
Next, UAACAGGGGGCCACAGCAGAAGGGUACACGUCGCAGCCUCUGUCAGAUUCUGGUGAAUCUGCGAAUUCUGCAGUAUAUCUC: 0.14.
